Source: the supplement of paper PMC11417369
± gives the standard deviation of the averaged measurements. The list shows a part of the results.

tested on: PfAP2-G AP2 domain (GST-tagged); assay: gcPBM binding intensity (ln(normalized median fluorescence intensity)); higher = stronger DNA binding
How it was run: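 The highest Masliner-normalised natural-log median intensity across replicate spots of either probe orientation is reported as binding intensity. GST-tagged P. falciparum DNA-binding domains expressed in E. coli were applied for 1 h to an Agilent 4 × 180k array of primer-extended double-stranded 36-bp intergenic genomic probes plus negative controls, and bound protein was detected with Alexa488 anti-GST antibody and scanned at 488 nm.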

| Sequence | gcPBM binding intensity (ln) |
| --- | --- |
| TTTTGGCTGATCAGATTTAACAAAAAAAAAAAAAAA [CACACA_negctrl_site671] | 9.71 ± 0.44 |
| ATCAGTCGGCAGGACAGTACACAGTAGCCAGGAAAT [XGTACX_site2003] | 11.1 ± 0.71 |
| GCTTTTTATTTTTACCGTACATTATATATGTATATA [XGTACX_site808] | 10.9 ± 0.52 |
| ATATTATTAATTTATAGTACTCATTTTTTTTTTTTT [XGTACX_site3536] | 11.2 ± 0.76 |
| TTCCAAAATTGCATTTGTACCCAAAAAATGTATACG [XGTACX_site7680] | 11.2 ± 0.75 |
| GTAAGTTTGAATACACGTACAAATTTATTAAAGTCC [XGTACX_site6722] | 11.3 ± 0.83 |
| AGATATTAAAACGTTACACACATTTATATATCTTCT [CACACA_site908] | 9.74 ± 0.2 |
| AATATATATATAGGATGTACACATAATTCAAATACA [XGTACX_site6368] | 11.5 ± 0.85 |
| TATATATATATAAACTGTACTATTTTATGTTAAAAG [XGTACX_site3630] | 11.4 ± 0.87 |
| ATTTAATACAAATACACACACAAATATATACATATA [CACACA_site3747] | 10.01 ± 0.035 |
| ATGGTATATCCAAATAAACACACGTAAATACATAAA [CACACA_site1682] | 10.2 ± 0.17 |
| ATACATTTTTGTAAAAGTACATATACATGCCCCCTT [XGTACX_site1367] | 11.6 ± 0.91 |
| ATATATATATTTGTGTGTACATATTAATTTGTATGA [XGTACX_site4047] | 11.5 ± 0.88 |
| AACGCGAACAATTTATAGATAACTTTTAATTATTAT [GTGCAC_negctrl_site179] | 9.865 ± 0.007 |
| CAGCTCTTAAAAATTACACACATATACACATATATA [CACACA_site9073] | 9.91 ± 0.18 |
| TTATTACACACATATGTGCACATATAAAAGTACACG [GTGCAC_site9581] | 11.5 ± 0.9 |
| TTTATAATTTATATCACACATATATCTGTAATAAAT [CACACA_site5048] | 9.65 ± 0.13 |
| ATCTCTGTAAAGATCACACATATATTTTTGTTATAT [CACACA_site5094] | 9.865 ± 0.078 |
| TATATATTATATATATGTACATATTGTTGTGTATAT [XGTACX_site767] | 11.2 ± 0.86 |
| CATATATGTTATATTTAACACACATATAAGGTACAT [CACACA_site8105] | 11.2 ± 0.95 |
| ATATAATAAATATGTTGTACTATAAAAAATAGCCAT [XGTACX_site4710] | 11.2 ± 0.77 |
| TTTCTAGTTACAAGAGTGCATAATATATAAAAATAA [GTGCAC_site9874] | 10.2 ± 0.26 |

| Sequence | gcPBM binding intensity (ln) |
| --- | --- |
| TATATATATATATATACACACATTTTTAATGATAAA [CACACA_site2695] | 10.1 ± 0.37 |
| TATAAATACAATTCACAAGAGATCATGTATCAAACC [CACACA_negctrl_site1219] | 9.87 ± 0.042 |
| AGAAAATATTTTGGTTGTACAGGCGATTTATATGTT [XGTACX_site7253] | 11.2 ± 0.71 |
| AAAAAAAAAAAAAAAAAAAAAAAAAAAAGAAAAAAG [GTGCAC_negctrl_site583] | 11 ± 0.44 |
| ACTAATTACTATAAAACACACATATATATATATATA [CACACA_site2591] | 10.2 ± 0.55 |
| TTAGTCGAATGATGTACACACATACAAAACATTTAT [CACACA_site6076] | 11.5 ± 1 |
| GATCATTTAAAATAAGTAATATTTTTTTTACTTTTG [TGCATGCA_negctrl_site602] | 9.62 ± 0.26 |
| TTATAAAAGAAAAAAAAAAAAAAAAAAAAAAAAAAA [CACACA_negctrl_site1006] | 9.51 ± 0.2 |
| TTATATTTTCAGAATAGTACACATATATACATATAT [XGTACX_site2519] | 11.4 ± 0.96 |
| AAAAATTCTTGGCGCACACACTTTAAAAATTAAAAA [CACACA_site4498] | 10.5 ± 0.53 |
| ATCTATGTTCCTTTTACACACATAATCTTTTTTTTA [CACACA_site5468] | 10.29 ± 0.078 |
| ATATATATATATTATACACACAAAAATATTTTGTAT [CACACA_site266] | 10.1 ± 0.33 |
| AGCATTTTAAAAGAAAAAAAAAAAAAAAAAAAAATA [GTGCAC_negctrl_site723] | 9.59 ± 0.33 |
| TTTTGTTTTTACGAATACTTTTTTAATTTTATTTAT [TGCATGCA_negctrl_site395] | 9.96 ± 0.4 |
| CATGCATACTACATCTGTACACATACATTATATTTA [XGTACX_site2495] | 11.4 ± 1 |
| CGTGGGAGCAGACACACACACACACGCATATTTATA [CACACA_site6290] | 10.16 ± 0.099 |
| ATGGACAAAAAATATATACACACGAGGAAACCAACA [CACACA_site3726] | 10.5 ± 0.25 |
| ATATATATAGATTGTACACACATTTATGCATATATA [CACACA_site3222] | 11.3 ± 0.83 |
| GTAAATTATATAACAAATAAAAATGTACATATATAT [CACACA_negctrl_site408] | 11.4 ± 0.73 |
| TATACTTTATATATTTTGTATATATATTTTTTTTAT [TGCATGCA_negctrl_site530] | 9.645 ± 0.035 |
| TCTTGTTATTTAAATGCATGTTGATTTTAAAAAATT [TGCATGCA_site840] | 10 ± 0.12 |
| AATAAAAAGTAATAATAACGTATAATTTATTATACT [TGCATGCA_negctrl_site414] | 9.53 ± 0.22 |

| Sequence | gcPBM binding intensity (ln) |
| --- | --- |
| ACGCAATATTAACAAGTGCATTATAACACATAACAT | 10.1 ± 0.11 |
| ATAACATTCTATGTTGCACACAAAGAGAAAAATTTA [CACACA_site9322] | 10.03 ± 0.092 |
| AGTAGATATAATTATAGTACTTTGATGTTTTCTTTA [XGTACX_site5038] | 10.6 ± 0.32 |
| AAAAAAAAAAAAAAAAAAAAAAAAACAATGAATTTA [GTGCAC_negctrl_site698] | 10.9 ± 0.31 |
| TTTTTTTTTAGAAAAACATGCATGTCCTAAAAATAA [TGCATGCA_site684] | 10.7 ± 0.66 |
| ATATGATAAATTATATGTACTTAAAATATATTATAA [XGTACX_site5904] | 11.3 ± 0.98 |
| TGGCAAAATAGGCACACACACATATACATCTATATT [CACACA_site6626] | 10.08 ± 0.014 |
| GTCATATATTATAATAGTACATAAATAATTGATGCC [XGTACX_site3567] | 11.1 ± 0.68 |
| TTTTTCTATATTTTCTTTTATAAAATATATAATTTT [GTGCAC_negctrl_site345] | 9.65 ± 0.071 |
| ATAGTTATTTTATAGCGTACACAATAAATATATAAA [XGTACX_site4445] | 11.7 ± 1.1 |
| CACAGAAATAGAGATACACACACACCGATATTTATG [CACACA_site9313] | 10.22 ± 0.071 |
| ATTTTTTTTTTTTTTTTTTTATTCTTAATTCATATA [CACACA_negctrl_site342] | 9.59 ± 0.085 |
| TTTTTGTTTGTTCACGACTACATTATGTCATAAATG [CACACA_negctrl_site597] | 10.4 ± 0.28 |
| TATATATAAATATATACACACATGAAAATAAATAAA [CACACA_site2514] | 10.02 ± 0.092 |
| ATGTATTTATTATTTAGTACACATTATTTTCTTATA [XGTACX_site6365] | 11.2 ± 0.69 |
| AAATTTTCTTTTAAGTGTACGAAATTTAGTATTTCA [XGTACX_site7819] | 11.2 ± 0.84 |
| TAAACAGTATGCAACGCATGCGTTGTTATATATAAA [TGCATGCA_site232] | 9.88 ± 0.042 |
| ATATATATATATGTGTGTACATATATGTGGATGGAT [XGTACX_site6240] | 11.4 ± 0.86 |
| TTATAGGATCAAGCGCGTACATATCTTTATAAAAGA [XGTACX_site5775] | 11.5 ± 0.93 |
| AGGTAGAAAAAAGACACACACATTATGTATATATAT [CACACA_site377] | 9.86 ± 0.028 |
| ATTATTTTAATAAAACGTACAAAATATAAATCAAAA [XGTACX_site3770] | 11.2 ± 0.72 |
| AAAAAATATACATATACACACATATGTATATATAAT [CACACA_site8676] | 9.94 ± 0.23 |

| Sequence | gcPBM binding intensity (ln) |
| --- | --- |
| ATATACAAATATATATATATATATATATATATATAT [CACACA_negctrl_site886] | 9.89 ± 0.81 |
| TATTTCTTTATTGGCACACATTTTTTCAATTATATA [CACACA_site4975] | 10.5 ± 0.25 |
| GCAAATATGTTGATATGTACATATATATATATATAT [XGTACX_site445] | 11 ± 0.61 |
| TAATGTTTTTTTTGTTTACCAAAAATAATACATTAT [CACACA_negctrl_site203] | 10.1 ± 0.33 |
| AATAACAAAATATTAACACACATAACATATTATAAA [CACACA_site2803] | 9.865 ± 0.064 |
| TTTTTTCATATAAATACATGCACACAAAAATATCAA [TGCATGCA_site602] | 10.4 ± 0.33 |
| TTATATATTAATAGTAGTACTATATTGAATCACCCC [XGTACX_site2868] | 11.3 ± 0.85 |
| TATTTATACTCAACTTTCTGTTATTCCAACTTTTTT [XGTACX_negctrl_site410] | 10.1 ± 0.16 |
| AGTTTATAGTGATATTGTACATATATATATATATAT [XGTACX_site572] | 10.9 ± 0.59 |
| TTATTTTTGTTTTGAAGTACAAAAAAATATATTCTT [XGTACX_site6416] | 11.1 ± 0.79 |
| AAAATTTATATAAGCACACAAATATATATTTATATC [CACACA_site3291] | 9.92 ± 0.014 |
| ACATAAGAACATATTTGTACGTATATAAATTAAATA [XGTACX_site6127] | 11.4 ± 0.79 |
| TTTTAAATCTTATATTCCCCACATAAATAGCTCTCT [GTGCAC_negctrl_site665] | 9.795 ± 0.035 |
| ACAACAAAAATAAGCACACACAAATATACATACATA [CACACA_site7664] | 10.2 ± 0.29 |
| CAACATTAATATAAAGCACACATATATATAATATAT [CACACA_site8064] | 9.955 ± 0.035 |
| ACTCTATAATAAAATACACACAAGACTATCTAATAT [CACACA_site1796] | 10.12 ± 0.071 |
| TTAACGCTTATTTTTTGTACTTATTTTATTTTAAAT [XGTACX_site3977] | 11.2 ± 0.59 |
| ATATATACATATAATTGTACTTGTGTTGTTTTTCTT [XGTACX_site1870] | 11.1 ± 0.67 |
| TAATTATATAAATATTGTACAAAAAAAATATATATA [XGTACX_site3137] | 11.1 ± 0.73 |
| AAAATATATAATATAACACACATATATTCTATATGG [CACACA_site4044] | 9.66 ± 0.17 |
| TTCAAAATATATATTTGTACATATAGGATCTTTTTC [XGTACX_site4500] | 10.7 ± 0.45 |
